Source: PubChem BioAssay AID1963576 (National Center for Advancing Translational Sciences (NCATS), 2024)
In all, about 46,000 compounds went through this assay and about 60 (0.1%) were called active. Another 3% or so got no clear call; they are omitted. Calls come from the whole dose curve; as a rule, active = well fitted inhibition curve with a large enough effect; inconclusive = small, poorly fitted or top-dose-only effect; inactive = no such curve, though single readings can be large or run the other way. This is one part of the list.

Experiment: Primary qHTS assay for Inhibitors of ovarian cancer metastasis using an organotypic tumor microenvironment (TME) model.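 For activity change, negative = inhibition: plate controls were DMSO wells for no effect and tomatine positive control wells for full effect.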 Note: nearly all actives have a fitted effect of over 65% in size.
Conditions: SKOV3ip1-GFP adhesion/invasion on 3D omental model, fluorescence; series mostly up to 45.8 µM; activity change, negative = inhibition: at the top concentration
Method in brief: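 Adhesion/invasion was scored as fixed GFP-labeled SKOV3ip1 cell counts (488/509 nm), normalized to DMSO and tomatine controls. Cancer cells in serum-free medium, with four compound doses (0.36-46 umol/L), sat 2 hr at RT then 16 hr at 37 C on a 48 hr fibroblast/mesothelial/ECM culture.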

Activity change, negative = inhibition, inactive:
CCOc1ccc(CCNC(=O)CCCc2cc(-c3ccc(OCC)cc3)on2)cc1 28.6%, CC(NC(=O)C1(c2cccs2)CCOCC1)c1ccccc1 (stereo not drawn) 1.25%, CCCN(CCC)CCCNC(=O)c1cc2c(=O)oc3ccc(C)cc3c2s1 23.1%, Cc1ccc(CN2CCSc3ccc(C(=O)Nc4ccc(Cl)cc4)cc32)cc1 10.5%, Cc1ccc(NC(=O)C2CCCN(c3ncnc4c3nc3n4CCCCC3)C2)cc1F (stereo not drawn) 10.2%, CN(C)S(=O)(=O)n1cc(/C=C(\NC(=O)c2ccccc2F)C(=O)NCCCn2ccnc2)c2ccccc21 26.2%, OC(c1cc(C(F)(F)F)nc2c(C(F)(F)F)cccc12)C1CCCCN1 (stereo not drawn) -29.6%, Cc1ccccc1CN1CCC(CNc2ncnc3onc(-c4ccc(Cl)cc4)c23)CC1 1.79%, O=C(Cc1csc2ccccc12)NCc1cccc(Br)c1 1.06%, Cc1ccc2nc(/C(C#N)=C/c3cccc(Br)c3)[nH]c2c1 -1.38%, O=C(NCc1ccccc1Cl)C1CCN(S(=O)(=O)c2ccc3c(c2)CCCN3C(=O)C2CCC2)CC1 -12.3%, Cc1cc(C)cc(Oc2coc3c(CN4CCN(C)CC4)c(O)ccc3c2=O)c1 -5.67%, COc1ccc(Nc2c(-c3ccc(Cl)cc3)nc3cnccn23)cc1OC 9.85%, O=C(Nc1cccc(C(F)(F)F)c1)C1CCN(c2nnc(-n3cccc3)s2)CC1 -2.27%, COc1cc(NS(=O)(=O)c2ccc(NC(=O)C(C)Oc3ccc(Cl)cc3Cl)cc2)nc(OC)n1 (stereo not drawn) -5.39%, Cc1nc2cccnc2n1-c1cccc(C(=O)NCc2ccc(OC(C)C)cc2)c1 -6.48%, O=C(O)CC(NS(=O)(=O)c1ccc(Cl)s1)c1ccccc1 (stereo not drawn) -14.5%, CCOc1ccc(NC(=O)c2c(NC(=O)c3ccco3)sc3c2CCC(C(C)(C)C)C3)cc1 (stereo not drawn) -4.9%, CCOc1ccc(NC(=O)c2sc3nc4c(cc3c2N)CCCCCC4)cc1 7.3%, Cc1ccc(OCC(=O)Nc2ccccc2C(=O)OCc2cc(=O)n3nc(C4CC4)sc3n2)cc1 10.3%, O=C(c1cccs1)N(Cc1cccnc1)c1nc2ccc(F)cc2s1 6.23%, CC1CCN(C(=O)c2c(NC(=O)c3ccccc3F)sc3c2CCC(C(C)(C)C)C3)CC1 (stereo not drawn) -5%, Cc1nc2ccccn2c(=O)c1NC(=O)c1c(F)cccc1F 3.49%, COc1ccc(CCN2CCN(CCCc3ccccc3)CC2)cc1OC -1.99%, CC(=CC(=O)Nc1ccccc1C(=O)O)c1ccc2ccccc2c1 -13.8%, Oc1ccc(-c2nc3ccccn3c2Nc2ccc3c(c2)OCCO3)cc1 -4.57%

outcome, inactive:
CCn1cc(C(=O)N2CCN(c3cc(Cl)ccc3C)CC2)c2cc(OC)c(OC)cc2c1=O, COc1cccc(C(=O)Nc2cc(-c3cn4cccnc4n3)ccc2C)c1OC
